Where two headings read alike, the source gives them in different places. Results are given in words; binding and its absence hold for the method and conditions named. For some assays here: In cells and extracts the contact can be indirect. Some entries that bind do so weakly or less than the wild type. For some assays here: Where a sequence is shown, tags or fusion partners need not be part of it.
Experiments:
[1] = molecular target: CaErg11 (split-ubiquitin two-hybrid fusion) (C. albicans) (UniProt P10613); assay: two-hybrid; split-ubiquitin two-hybrid in S. cerevisiae L40; Cub-PLV and NubG fusions; growth on Trp- Leu- His- plates after 48 hr and >3-fold β-galactosidase activity over the negative control
[2] = molecular target: ScArv1-HA (S. cerevisiae) (UniProt Q06541); assay: co-IP; whole cell lysates of Scarv1 cells co-expressing Arv1-HA and Erg11-MYC; 1 mg protein, anti-HA (16B12) or anti-MYC (9E10) 4 hr at 4°C, Protein A agarose; washes with 10 mM HEPES pH 7.5, 200 mM NaCl, 5 mM EDTA, 0.1% Nonidet P-40; western
[3] = molecular target: ScErg11 (split-ubiquitin two-hybrid fusion) (S. cerevisiae) (UniProt P10614); assay: two-hybrid; split-ubiquitin two-hybrid in S. cerevisiae L40; Cub-PLV and NubG fusions; growth on Trp- Leu- His- plates after 48 hr and >3-fold β-galactosidase activity over the negative control
[4] = molecular target: ScErg11-MYC (S. cerevisiae) (UniProt P10614); assay: co-IP; whole cell lysates of Scarv1 cells co-expressing Arv1-HA and Erg11-MYC; 1 mg protein, anti-HA (16B12) or anti-MYC (9E10) 4 hr at 4°C, Protein A agarose; washes with 10 mM HEPES pH 7.5, 200 mM NaCl, 5 mM EDTA, 0.1% Nonidet P-40; western
[5] = molecular target: CaErg11-MYC (C. albicans) (UniProt P10613); assay: as above
[6] = molecular target: CaErg11-MYC (C. albicans) (UniProt P10613); assay: as above; remark: listed apart in the source

Amino acid sequences for entries named in this document (tags omitted). A change or cut given only in a name is not applied to a line headed by its entry.
UniProt P10613: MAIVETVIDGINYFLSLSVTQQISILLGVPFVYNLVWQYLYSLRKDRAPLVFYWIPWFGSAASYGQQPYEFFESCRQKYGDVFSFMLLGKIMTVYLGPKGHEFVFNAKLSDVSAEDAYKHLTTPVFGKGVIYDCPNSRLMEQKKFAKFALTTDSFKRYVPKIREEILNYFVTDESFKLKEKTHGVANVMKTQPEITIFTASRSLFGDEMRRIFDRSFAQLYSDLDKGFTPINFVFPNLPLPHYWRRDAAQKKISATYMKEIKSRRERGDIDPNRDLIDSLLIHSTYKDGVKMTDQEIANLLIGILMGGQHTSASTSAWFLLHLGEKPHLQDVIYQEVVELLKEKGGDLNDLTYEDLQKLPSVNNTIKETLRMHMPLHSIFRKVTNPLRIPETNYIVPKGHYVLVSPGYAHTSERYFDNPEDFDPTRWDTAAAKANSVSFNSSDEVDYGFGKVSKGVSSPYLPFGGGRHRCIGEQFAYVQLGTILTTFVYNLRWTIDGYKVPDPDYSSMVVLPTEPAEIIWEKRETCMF
UniProt Q06541: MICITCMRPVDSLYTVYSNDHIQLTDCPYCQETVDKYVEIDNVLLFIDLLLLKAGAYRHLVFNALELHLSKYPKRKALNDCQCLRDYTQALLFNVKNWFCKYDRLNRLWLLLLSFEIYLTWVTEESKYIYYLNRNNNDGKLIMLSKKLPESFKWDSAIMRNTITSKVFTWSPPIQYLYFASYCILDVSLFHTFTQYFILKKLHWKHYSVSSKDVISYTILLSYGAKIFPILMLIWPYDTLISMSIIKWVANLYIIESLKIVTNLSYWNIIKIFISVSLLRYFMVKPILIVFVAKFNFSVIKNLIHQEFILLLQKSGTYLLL
UniProt P10614: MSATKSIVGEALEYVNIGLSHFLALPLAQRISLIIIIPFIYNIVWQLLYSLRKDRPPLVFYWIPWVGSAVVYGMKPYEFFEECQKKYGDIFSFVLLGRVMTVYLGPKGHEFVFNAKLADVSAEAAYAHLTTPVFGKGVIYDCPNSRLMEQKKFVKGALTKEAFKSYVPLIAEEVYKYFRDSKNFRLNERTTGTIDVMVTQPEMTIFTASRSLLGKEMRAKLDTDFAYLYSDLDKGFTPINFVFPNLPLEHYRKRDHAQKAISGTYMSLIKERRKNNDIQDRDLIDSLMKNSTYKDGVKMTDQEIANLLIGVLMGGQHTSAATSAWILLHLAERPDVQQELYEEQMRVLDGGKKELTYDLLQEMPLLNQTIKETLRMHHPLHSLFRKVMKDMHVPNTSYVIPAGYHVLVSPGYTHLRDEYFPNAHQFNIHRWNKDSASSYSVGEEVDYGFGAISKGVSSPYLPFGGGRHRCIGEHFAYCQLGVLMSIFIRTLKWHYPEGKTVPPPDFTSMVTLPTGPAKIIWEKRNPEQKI

With “CaArv1^C3A (split-ubiquitin two-hybrid fusion) (from UniProt Q5ANH2 1-296)” the binding [1] was “binds”.

With “ScErg11-MYC (from UniProt P10614 1-530) (enzyme)” the binding [2] was “binds”.

“ScArv1^C27A (split-ubiquitin two-hybrid fusion) (from UniProt Q06541 1-321)” was tested, and the binding [3] was “no binding”.

“ScArv1^C3A-HA (from UniProt Q06541 1-321)” was tested, and the binding [4] was “binds”.

“ScArv1^C3A (split-ubiquitin two-hybrid fusion) (from UniProt Q06541 1-321)” was tested, and the binding [3] was “binds”.

With “full-length ScArv1 (split-ubiquitin two-hybrid fusion) (from UniProt Q06541 1-321)” the binding [3] was “binds”.

For ScArv1-HA (from UniProt Q06541 1-321), the binding [4] was “binds”.

With “ScArv1^C27A-HA (from UniProt Q06541 1-321)” the binding [4] was “no binding”.

For “CaArv1^Y38A (split-ubiquitin two-hybrid fusion) (from UniProt Q5ANH2 1-296)”, the binding [1] was “binds”.

In the case of “CaArv1^C28A-HA (from UniProt Q5ANH2 1-296)”, the binding [5] is reported as “no binding”.

In the case of “CaArv1^C3A-HA (from UniProt Q5ANH2 1-296)”, the binding [5] is reported as “binds”.

“CaArv1^C28A (split-ubiquitin two-hybrid fusion) (from UniProt Q5ANH2 1-296)” was tested, and the binding [1] was “no binding”.

“ScArv1^Y37A-HA (from UniProt Q06541 1-321)” was tested, and the binding [4] was “binds”.

With “ScArv1^Y37A (split-ubiquitin two-hybrid fusion) (from UniProt Q06541 1-321)” the binding [3] was “binds”.

In the case of “CaArv1^Y38A-HA (from UniProt Q5ANH2 1-296)”, the binding [5] is reported as “binds”.

B1: CaArv1-HA (protein, UniProt Q5ANH2 1-296)
chain: MICIECGYSNIDCLYSKYKSDYIKLSVCPECNKIADKYIEYDSVILFLDILLLKRQAYKHLAYNLTEMEMEIGSSTNFHINDNTNFKFFHTYRKLMKLIFMILSFEVYLTWANEEKLLIHSQLINLIFNQSVVYQYLFFIIKSSLENLILNLSLQLILRLGYKWGQGPQKINGNIRDKELFGYKTSVLLVTTMVSGSIRLFPILMFIWPYDNISITKPLINLIAFINIVEALRVVTSLGYVELILSLAFSIVIRNIVSKSLLVLIVRLFLDFNFTEVYYNEMYQLYSQIQTYIRWI
With B1 the binding [6] was “binds”.

B2: full-length CaArv1 (split-ubiquitin two-hybrid fusion) (protein, UniProt Q5ANH2 1-296)
chain: MICIECGYSNIDCLYSKYKSDYIKLSVCPECNKIADKYIEYDSVILFLDILLLKRQAYKHLAYNLTEMEMEIGSSTNFHINDNTNFKFFHTYRKLMKLIFMILSFEVYLTWANEEKLLIHSQLINLIFNQSVVYQYLFFIIKSSLENLILNLSLQLILRLGYKWGQGPQKINGNIRDKELFGYKTSVLLVTTMVSGSIRLFPILMFIWPYDNISITKPLINLIAFINIVEALRVVTSLGYVELILSLAFSIVIRNIVSKSLLVLIVRLFLDFNFTEVYYNEMYQLYSQIQTYIRWI
With B2 the binding [1] was “binds”.
